Laboratory results: paper PMC6919601, “Identification of Plasmodium dipeptidyl aminopeptidase allosteric inhibitors by high throughput screening” (PLoS ONE, 2019)
Screen size: about 110,000 compounds; about 230 (0.21%) showed an effect of 50% or more. Some of the results follow.

What follows are compounds tested against DPAP1 (Plasmodium falciparum, UniProt Q8IIJ9) (assay: primary screen, percent inhibition; read by cleavage of a fluorogenic dipeptide substrate; higher = more effect of the substance).
Sequence of DPAP1 (Q8IIJ9 whole entry, looked up): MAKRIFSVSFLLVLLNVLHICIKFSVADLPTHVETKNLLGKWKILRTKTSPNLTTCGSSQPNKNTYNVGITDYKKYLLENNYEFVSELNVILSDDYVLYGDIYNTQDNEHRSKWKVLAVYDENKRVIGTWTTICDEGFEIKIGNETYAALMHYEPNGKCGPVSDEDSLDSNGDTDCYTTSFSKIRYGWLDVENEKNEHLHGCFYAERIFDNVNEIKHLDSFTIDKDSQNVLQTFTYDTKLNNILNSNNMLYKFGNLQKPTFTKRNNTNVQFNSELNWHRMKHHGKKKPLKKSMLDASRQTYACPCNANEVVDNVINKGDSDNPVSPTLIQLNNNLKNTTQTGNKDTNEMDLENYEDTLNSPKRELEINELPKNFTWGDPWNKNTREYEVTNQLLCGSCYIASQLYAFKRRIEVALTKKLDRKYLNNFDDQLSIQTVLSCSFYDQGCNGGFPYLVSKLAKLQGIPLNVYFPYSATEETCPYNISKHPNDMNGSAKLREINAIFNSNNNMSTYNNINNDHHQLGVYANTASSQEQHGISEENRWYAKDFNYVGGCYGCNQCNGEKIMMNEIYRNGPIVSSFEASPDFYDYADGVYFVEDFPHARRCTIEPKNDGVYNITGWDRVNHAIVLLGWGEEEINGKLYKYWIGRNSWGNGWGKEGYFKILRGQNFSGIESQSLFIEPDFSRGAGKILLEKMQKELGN
Design: species or system P. falciparum D10 trophozoite lysates; single well
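Also: 30 min substrate incubation versus DMSO and 10 µM JCP410 controls.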

Structure (SMILES) | % Inhibition @ 10 uM [%]
COc1ccccc1OCCCCN1CCCCC1 | -9.84
COc1cc(/C=C(\C#N)c2nc3ccccc3[nH]2)cc(Cl)c1O | -2.89
CC1(C)CC(c2ccc(Cl)cc2Cl)OC(c2ccccc2)=N1 (stereo not drawn) | 0.962
Cc1cccc(NS(=O)(=O)c2cccc(C(=O)Nc3ccc([N+](=O)[O-])cc3)c2)c1 | -5.36
COC(=O)C1=C(C)N(Cc2ccccc2)C(=O)/C1=C\c1c(Cl)cccc1Cl | 3.43
NC(=O)c1cccc(NC(=O)c2ccc(-c3ccccc3)cc2)c1 | -6.44
Cc1nc(O)nc(O)c1S(=O)(=O)N1CCC(C(=O)NC(C)c2ccccc2)CC1 (stereo not drawn) | -2.56
C=CCN1C(=O)S/C(=C/c2ccc(C(F)(F)F)cc2)C1=O | -1.22
COC(=O)CN(CC(=O)OC)C(=O)c1ccccc1 | 3.25
CC(=O)Nc1ccc2nc(C)c(C/C=C(/C)Cl)c(O)c2c1 | -4.93
CC1(C)CC(=O)c2cc(OCC(=O)NCc3ccccc3)ccc2O1 | -1.96
O=C(O)c1ccc2c(c1)C(=O)N(c1ccccc1)C2=O | -7.9
Cc1ccc(NS(=O)(=O)c2ccccc2[N+](=O)[O-])cc1 | -2.44
CS(=O)(=O)N1N=C(c2ccccc2)CC1c1ccccc1F (stereo not drawn) | -1.68
CCCC(=O)Nc1nn2c(-c3cccs3)nnc2s1 | -0.361
CO/C(O)=C1\C(C)=NC2=C(C(=O)CCC2)C1c1ccccc1C (stereo not drawn) | 3.65
CCn1nc(C)c(/C=C2\CCCC3=C2OC(N)=C(C#N)C3c2c(C)nn(CC)c2C)c1C (stereo not drawn) | 1.35
CCNC(=O)C(CC(C)C)NC(=O)OC(C)(C)C (stereo not drawn) | -9.6
CCCCCCSC1=C(C#N)C(c2ccc(OC)cc2)CC(=O)N1 (stereo not drawn) | -0.769
COc1ccccc1NC(=O)/C(=C/c1ccccc1Cl)NC(=O)c1ccccc1 | 4.01
COc1ccc(C2C(C#N)=C(N)N(c3ccc(Cl)cc3)C3=C2C(=O)CCC3)cc1 (stereo not drawn) | -0.725
O=C(OCCCC(=O)N1CCOCC1)c1ccccc1 | -0.693

Structure (SMILES) | % Inhibition @ 10 uM [%]
Cn1nccc1C(=O)NCCN1C(=O)OC(C)(C)C1(C)O (stereo not drawn) | 0.983
CC(C)N1C/C(=C/c2cccnc2)C(=O)/C(=C/c2cccnc2)C1 | 1.74
O=C1c2ccccc2CN1CCSC(=S)N1CCOCC1 | -5.96
O=C(NCCCc1ccccc1)c1ccc2nc(N3CCCCC3)sc2c1 | -6.01
O=C(/C=C/c1ccccc1)c1cccc(N2C(=O)C3C4C=CC(C4)C3C2=O)c1 (stereo not drawn) | -3.32
Cc1n[nH]c(C)c1S(=O)(=O)N1CCC(C(=O)NCCc2ccccc2)CC1 | -9.46
COc1cc(C2C3=C(CCCC3=O)OC3=C2C(=O)CCC3)ccc1OC1CCCC1 | 1.88
CC1CCC(NCC2CCCO2)CC1 (stereo not drawn) | -3.6
COc1ccc(C(=O)Nc2ccc(C)cn2)cc1OC | 2.43
OC1=C2C(=Nc3nc(SCc4ccccc4Cl)nn3C2c2cccnc2)CCC1 (stereo not drawn) | 9.37
O=C(O)c1ccccc1C(=O)N1CCN(CCO)CC1 | -8.41
CC(C)CC(=O)N1c2ccccc2N=C2CC(C)(C)CC(O)=C2C1c1ccco1 (stereo not drawn) | -2.07
CCOC(=O)CN(C)Cc1ccccc1Br | -2.34
O=C1N=C(N2CCCC2)S/C1=C\c1ccccc1 | -0.759
Cc1ccccc1N1CCN(Cc2coc3ccccc3c2=O)CC1 | -3.77
c1nc2sc3c(c2c2nnnn12)CCC3 | -1.5
CCN(CC)S(=O)(=O)c1ccc(NC(=O)COc2ccc(Br)cc2C)cc1 | -4.63
Cc1cc(Br)ccc1S(=O)(=O)N1CCOCC1 | 3.82
CCCN(CCC)S(=O)(=O)c1cc(-c2onc(C)c2C)ccc1C | 2.35
COc1ccccc1C1=N/C(=C\c2c(F)cccc2Cl)C(=O)O1 | 8.79
COCC(CN1CCN(C2=NS(=O)(=O)c3ccccc32)CC1)OC(=O)c1ccc(C)cc1 (stereo not drawn) | -4.51
N/C(=N\N=C\c1cc(Br)ccc1O)c1nonc1N | -10.9

Structure (SMILES) | % Inhibition @ 10 uM [%]
CCn1cc(Cl)c(C(=O)N2N=C(c3ccc4c(c3)OCCO4)CC2c2ccccc2O)n1 (stereo not drawn) | 0.658
Clc1ccc2nc3c4ccccc4cnn3c2c1 | -1.11
CCc1nc2ccc(C(=O)NC)cc2nc1CC | 2.93
Cc1ccc2c(c1)-c1c(cnn1CC(=O)N1CC(C)CC(C)C1)CO2 (stereo not drawn) | 14.5
CC1=C(C(=O)Nc2ccccc2C)C(c2cccc(F)c2)C2=C(O)CCCC2=N1 (stereo not drawn) | -6.36
O=C(NCCc1ccc(Cl)cc1)c1noc2c1COc1ccccc1-2 | 82.6
CNC(=O)c1cc(S(=O)(=O)NC2CCCCCC2)ccc1C | -7.14
O=C(NCc1ccccn1)c1ccc2c(c1)sc1nc(-c3ccc(F)cc3)cn12 | 5.88
COc1cccc(C(=O)N2CCN(CCCc3ccccc3)CC2)c1 | 3.47
O=C(O)/C=C\C(=O)Nc1ccc(C(=O)O)cc1 | -1.8
N#Cc1nnc2ccnn2c1N | -2.87
COc1ccc(-c2nc(CSCC(=O)N3CCC(Cc4ccccc4)CC3)c(C)o2)cc1OC | 2.37
CCCNC(=O)C1Sc2nnc(C)n2NC1c1ccc(OCC)cc1 (stereo not drawn) | 4.93
O=C(Nc1ccc(O)cc1)c1cccc([N+](=O)[O-])c1 | 2.94
CC(c1nc2ccccc2n1C)C(O)(c1ccccc1)c1ccccc1 (stereo not drawn) | -6.08
CN1CCC(=NNC(=O)C(=O)Nc2ccc(Cl)c(Cl)c2)CC1 | 6.66
Cc1ccc(C(=O)COc2cc3oc(=O)cc(C)c3cc2Cl)cc1 | 4.47
CC(C)OCCCn1c(=O)c2ccccc2n2c(CCC(=O)NC3CCCCC3)nnc12 | -1.44
COc1cc(C2c3c(-c4ccccc4O)n[nH]c3C(=O)N2CCO)cc(Br)c1O (stereo not drawn) | -4.95
CCc1ccc(C2=CC(c3cccc(C)c3)n3ncnc3N2)cc1 (stereo not drawn) | -5.19
COc1ccc2[nH]c(SCCN3CCCC3)nc2c1 | -1.66
CCc1c(C)nn(-c2ccc(Oc3ccccc3)c(S(=O)(=O)O)c2)c1O | -0.0735
